Reference: PubChem BioAssay AID493208 (National Center for Advancing Translational Sciences (NCATS), 2011)
Among all 44,000 compounds or so, about 340 (0.77%) were called active. Inconclusive results (about 5%) are left out. Calls come from the whole dose curve; as a rule, active = well fitted inhibition curve with a large enough effect; inconclusive = small, poorly fitted or top-dose-only effect; inactive = flat fitted curve, though single readings scatter. This is one part of the list.

Experiment: Acumen qHTS Assay for Inhibitors of the mTORC1 Signaling Pathway in MEF (Tsc2-/-, p53-/-) Cells: Sytravon; note: nearly all actives have a fitted effect of over 50% in size;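 for activity change, negative = inhibition: plate controls were DMSO for no effect and rapamycin for full effect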
Conditions: phospho-rpS6 immunofluorescence/PI, 24 h; series mostly up to 38.3 µM; activity change, negative = inhibition: at the top concentration
Method in brief: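 Cell-based qHTS: Tsc2-/- p53-/- MEF, 24 h cpd, 37 °C; fix/perm, anti-phospho-S6 Alexa-488 + PI; Acumen 488 nm scan; pS6/PI ratio, % positive cells; rapamycin 7.5 nM = inhibition ref; PI count = viability.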
Potency is the fitted concentration of half-maximal effect.

Compound	activity change, negative = inhibition	Potency
COC(=O)c1ccc(Cn2nnc3c(=O)[nH]c(C4CCCN(S(=O)(=O)c5ccccc5Cl)C4)nc32)cc1 (stereo not given)	inactive: 5.14%	–
Cc1ccc(-c2nnc3c4ccccc4c(C)nn23)cc1NC(=O)c1ccccc1	inactive: -2.5%	–
COc1ccc(-c2cn3c(C)c(C(=O)Nc4cc(C)cc(C)c4)sc3n2)cc1	inactive: -3.58%	–
CCc1ccccc1-n1c(N)c(C(=O)OC)c2nc3ccccc3nc21	inactive: 0.238%	–
CCc1cccc(NC(=O)CN(C)S(=O)(=O)c2ccc3[nH]c4c(c3c2)CCCC4)c1	inactive: 3.32%	–
COc1cc(NC(=O)c2nnn(CC(=O)Nc3cc(C)ccc3C)c2N)cc(OC)c1	inactive: -6.78%	–
CCOc1cc(C(=O)Nc2ccc3c(c2)n(C)c(=O)c(=O)n3C)cc(OCC)c1OCC	inactive: 1.89%	–
CCOc1ccc(-n2c(SCC(=O)Nc3ccc(CC)cc3)nc3c(oc4ccccc43)c2=O)cc1	inactive: -20%	–
O=C(Nc1ccc(OC(F)(F)F)cc1)c1noc2c1CCCC2	inactive: 0.51%	–
CCOC(=O)CCc1c(C)nc2cc(-c3cc(OC)cc(OC)c3)[nH]n2c1=O	inactive: 6.53%	–
COc1cc(NC(=O)c2cc(-c3cccc(OC)c3)n[nH]2)cc(OC)c1	inactive: -17.3%	–
COC(=O)c1ccc(NC(=O)CC2C(=O)N(c3cccc(OC)c3)C(=O)N2C(C)C)cc1 (stereo not given)	inactive: -1.9%	–
CCOC(=O)c1c(C)oc2ncnc(Nc3cc(C)cc(C)c3)c12	inactive: 0.561%	–
O=C(NCCc1csc2nc(-c3ccccc3F)nn12)C(=O)Nc1cc(F)ccc1F	inactive: -2.2%	–
CCC1=C(c2ccc(C)cc2)S(=O)(=O)N=C1N1CCC(C(=O)NCc2ccc(N(C)C)cc2)CC1	inactive: -2.96%	–
CCN1C(=O)c2ccccc2Sc2ccc(NC(=O)Nc3cccc([N+](=O)[O-])c3C)cc21	inactive: -20.8%	–
COc1ccc(N(C(=O)c2ccc(C(C)(C)C)cc2)S(=O)(=O)c2ccc(Cl)cc2)cc1	inactive: 18%	–
COc1ccc(CNC(=O)c2cnn3c(C)c(Cc4c(F)cccc4Cl)c(C)nc23)cc1	inactive: 6.17%	–
Cc1ccc(N2CC(NC(=O)c3cccc(Cl)c3)CC2=O)cc1C (stereo not given)	inactive: -4.1%	–
Cc1cccc(N2CCN(C(=O)c3cnc(N4CCCC4)nc3C)CC2)c1C	inactive: 16.2%	–
COc1ccc(C2c3c(n(C)c4ccccc34)C(=O)N2CC(=O)Nc2cccc(Cl)c2C)cc1 (stereo not given)	inactive: -0.148%	–
CC1CCCN(C(=O)Cn2ncc3c([nH]c4ccccc43)c2=O)C1 (stereo not given)	inactive: -1.1%	–
CCc1ccccc1Nc1sc(C(=O)c2cccc(OC)c2)c(N)c1S(=O)(=O)c1ccccc1	inactive: -6.35%	–
COC(=O)c1c(NC(=O)/C(C#N)=C/c2ccccc2)sc2c1C(C(=O)OC)CC2 (stereo not given)	inactive: 4.36%	–

Compound	activity change, negative = inhibition	Potency
CCCCOc1ccc(C(=O)NCc2nnnn2-c2ccc(C)c(C)c2)cc1	inactive: 9.64%	–
CCc1ccccc1NC(=O)Cn1c(=O)ccc2cc(S(=O)(=O)N3CCCC3)ccc21	inactive: 1.66%	–
CCCSc1ncc(Cl)c(C(=O)N(Cc2ccc(Cl)cc2)Cc2ccco2)n1	inactive: -8.5%	–
CCOC(=O)N1CCc2c(sc3c2c(=O)n(-c2ccc(CC)cc2)c(=O)n3C)C1	inactive: -14.4%	–
COc1ccc(OCc2ccc(-c3nc(C#N)c(N4CCCCC4)o3)o2)cc1	inactive: -16%	–
Cc1ccccc1OCC(=O)N1CCC(c2nc3ccccc3s2)CC1	inactive: -0.64%	–
COc1ccc(C(=O)c2c(N)c(C(=O)Nc3cccc(OC)c3)c3ccccn23)cc1	inactive: -3.35%	–
Cc1c(C(=O)N(C)C)sc2c1c(=O)n(-c1ccc(Cl)cc1)c(=O)n2CC(=O)C(C)(C)C	inactive: 2.66%	–
COc1ccc(-n2c(=O)c3sc4ccccc4c3n(Cc3ccccc3C)c2=O)cc1OC	inactive: -11.6%	–
Cc1ccc(NC(=O)Cn2nc(N3CCN(c4ccccc4)CC3)ccc2=O)cc1F	inactive: 5.23%	–
COc1ccc(S(=O)(=O)N2Cc3ccccc3CC2C(=O)Nc2ccc(C)cc2C)cc1OC (stereo not given)	inactive: 1.61%	–
CCOC(=O)c1c(C)[nH]c(C)c1S(=O)(=O)N1CCC(C(=O)NCc2cccc(OC)c2)CC1	inactive: 2.45%	–
CCC1CCCCN1S(=O)(=O)c1cc2c3c(c1)CC(=O)N3CCC2 (stereo not given)	inactive: 0.872%	–
CCC(C(=O)O)n1ccc2cc(S(=O)(=O)N3CCCCC3)ccc21 (stereo not given)	inactive: -0.352%	–
Cc1ccc(N2CCN(C(=O)C3CCN(S(=O)(=O)c4ccc5c(c4)oc(=O)n5C)CC3)CC2C)cc1 (stereo not given)	inactive: -11.1%	–
O=c1c2sc3ccccc3c2n(Cc2cccc(Cl)c2)c(=O)n1Cc1ccco1	inactive: -18.6%	–
CC(=O)c1ccc(NC(=O)CCc2c(C)nn(-c3ccc(N4CCOCC4)nn3)c2C)cc1	inactive: -0.682%	–
Cc1cc(C)c(S(=O)(=O)NCCc2cc3ccc(C)c(C)c3[nH]c2=O)c(C)c1	inactive: -16.9%	–
COc1ccc(-c2noc(-c3ccc(NCc4cccnc4)c([N+](=O)[O-])c3)n2)cc1OC	inactive: -0.555%	–
Cc1cc(NC(=O)c2cc(-c3cccc(Cl)c3)on2)n(-c2ccccc2)n1	inactive: 5.39%	–
Cc1ccccc1OCCn1c(=N)n(C(C)C)c2ccccc21	–	active: 18.5 µM
Cc1cc(C)cc(-n2c(C)nc3cc(C(=O)O)ccc32)c1	inactive: -1.38%	–
CCOc1ccc(C2=CC(c3cccc(Br)c3)n3c(nc4ccccc43)N2)cc1Cl (stereo not given)	inactive: -7.09%	–
Cc1cccc(OCc2nc(CC(=O)Nc3ccc(C)c(C)c3)cs2)c1	inactive: -16.8%	–

Compound	activity change, negative = inhibition	Potency
CCCn1c(CN2CCN(c3ccc(OC)cc3)CC2)nc2c1c(=O)[nH]c(=O)n2C	inactive: -0.748%	–
COc1cc(-c2cc3n(C)c(C)c(CCC(=O)O)c(=O)n3n2)cc(OC)c1OC	inactive: -6.76%	–
CCOc1ccc(NC(=O)C2CCN(C(=O)N3CC(C)Oc4ccc(Cl)cc43)CC2)cc1 (stereo not given)	inactive: 0%	–
CC(C)CC(=O)Nc1nnc(S(=O)(=O)N(CC(C)C)c2ccccc2)s1	inactive: 0%	–
Cc1cc2oc(C(=O)Nc3ccc(S(=O)(=O)N(C)Cc4ccccc4)cc3)cc(=O)c2cc1C	inactive: -5.49%	–
Cc1ccc(CNC(=O)CCC(=O)N2CC3CCCN3c3ccccc32)cc1 (stereo not given)	inactive: -14.9%	–
O=C(Nc1ccc2oc(-c3cc(Br)ccc3Cl)nc2c1)c1cc2ccccc2o1	–	active: 4.14 µM
CCc1ccccc1N1CC(c2nc3ccccc3n2CCCOc2ccc(Cl)cc2)CC1=O (stereo not given)	inactive: 0.902%	–
COc1ccccc1CNC(=O)c1cc2cc3ccc(Cl)cc3nc2o1	inactive: 0.531%	–
COc1ccc(CCNC(=O)CCc2c(C)nc3c(c(C)nn3-c3ccc(C)c(C)c3)c2C)cc1OC	inactive: 1.8%	–
COc1cc(OC)c(NC(=O)c2csc3c2CCC(C)C3)cc1Cl (stereo not given)	inactive: -3.04%	–
COc1ccccc1N1CCN(c2ccc(NC(=O)c3ccc(C)cc3)cc2C(=O)O)CC1	inactive: 0.441%	–
Cc1ccc(NC(=O)CCCn2c(=O)c3cccn3c3ccccc32)c(Cl)c1	inactive: 8.58%	–
Cc1c(CNC2CCCCC2)c(C(=O)O)c(C)n1Cc1c(F)cccc1Cl	inactive: 2.57%	–
COc1ccccc1OCCSc1nc(-c2ccc(C(C)(C)C)cc2)nc2cc(=O)[nH]n12	inactive: 4.6%	–
Cc1ccc(CNC(=O)Cn2cc(S(=O)(=O)Cc3ccccc3Cl)c3ccccc32)cc1	inactive: -2.34%	–
CCOc1ccc(NC(=O)C(CC)n2c(=O)c(-c3ccccc3NC(C)=O)nc3ccccc32)cc1 (stereo not given)	inactive: -7.03%	–
O=C(CCOc1ccccc1)N(Cc1cccnc1)c1nc2c(F)cc(F)cc2s1	inactive: -19%	–
Nc1nnc(SCC(=O)Nc2ccc(Cl)cc2)s1	inactive: 5.61%	–
COc1ccc(CNC(=O)c2cnc3sc(N4CCOCC4)nn3c2=O)cc1	inactive: -0.307%	–
COc1cc(OC)c(NC(=O)N2CCSc3ccccc32)cc1Cl	inactive: -2.2%	–
O=C(CSC1=Nc2ccccc2C2=NC(CCC(=O)NC3CCCCC3)C(=O)N12)Nc1cccc(C(F)(F)F)c1 (stereo not given)	inactive: 4.84%	–
COc1ccc(C(=O)Nc2cc3c(cc2C(=O)c2ccccc2Cl)OCCO3)cc1	inactive: -7.52%	–
CCOC(=O)c1c(C)oc2nc(C)nc(NCCCN3CCN(c4ccccc4)CC3)c12	inactive: -8.97%	–

Compound	activity change, negative = inhibition	Potency
COC(=O)C(CCSC)NC(=O)C1CCN(c2ncnc3c2nc2n3CCCCC2)CC1 (stereo not given)	inactive: 0.461%	–
CCOc1ccc(NC(=O)CCc2c(C)nc3nc(C)nn3c2C)cc1	inactive: -0.551%	–
CCOC(=O)c1c(NC(=O)CCCOc2ccccc2C)sc2c1CCC(C)C2 (stereo not given)	inactive: 2.68%	–
Fc1ccc(-n2ncc3c(NC4CCCCCC4)ncnc32)cc1	inactive: -14.8%	–
COc1ccccc1CNC(=O)c1ccc(Cn2c(SCc3ccccc3)nc3cccnc32)cc1	inactive: -5.81%	–
CCNC(=O)CC1C(=O)N(c2ccc(F)cc2)C(=O)N1CCOC (stereo not given)	inactive: -0.552%	–
N#Cc1ccccc1CN1C(=O)c2ccccc2Sc2ccc(C(=O)OCc3ccco3)cc21	inactive: -17.1%	–
O=C(CCc1ccccc1)NCc1nc2cccnc2n1Cc1ccc(F)cc1	inactive: -5.01%	–
CCOc1ccc(C(=O)N2CCC(c3nnc(-c4ccccc4OC)o3)CC2)cc1	inactive: -5.81%	–
CCOC(=O)N1CCc2c(sc3c2c(=O)n(-c2ccccc2)c(=O)n3CC(=O)Nc2ccc(OC)cc2OC)C1	inactive: 1.47%	–
COc1ccc(NC(=O)CN2CCN(Cc3ccccc3)S2(=O)=O)c(OC)c1	inactive: 0%	–
CCOc1ccc(OCC)c(NC(=O)c2cc(S(=O)(=O)N3CCCC3)cn2C)c1	inactive: -1.08%	–
CCC(Sc1nc2ncccc2[nH]1)C(=O)Nc1ccccc1F (stereo not given)	inactive: -4.08%	–
COc1ccc2c(CNCc3cccs3)c(C(=O)O)n(Cc3ccccc3C)c2c1	inactive: 0.895%	–
O=C(OCC1CCCO1)c1ccc2c(c1)N(Cc1ccc(F)cc1)C(=O)c1ccccc1S2(=O)=O (stereo not given)	inactive: 13.7%	–
COc1cc(OC)c(N(C)C(=O)c2cc3c(s2)-c2ccccc2OC3)cc1Cl	inactive: 3.73%	–
CCC(=O)NCc1nc2ccccc2n1Cc1ccccc1	inactive: -5.85%	–
Cc1ccc(Cl)cc1NC(=O)N1CCC(CN2CCc3ccccc3C2)CC1	inactive: 1.01%	–
CCCCOc1ccc(C(=O)Nc2ccc3c(c2)N(C(C)=O)CCC3)cc1	inactive: 0%	–
Cn1cccc1-c1cc2n(n1)CCC(=O)N2CC(=O)Nc1ccc(F)cc1Cl	inactive: 0.563%	–
Cc1ccc(S(=O)(=O)N2CCCc3cc(NC(=O)c4cccc(Cl)c4)ccc32)cc1	inactive: -0.154%	–
COC(=O)c1ccc2c(=O)n(CCCCCC(=O)N3CCN(c4cccc(C)c4C)CC3)c(=O)[nH]c2c1	inactive: -0.655%	–
CCOC(=O)c1c(C)[nH]c(C)c1S(=O)(=O)N1CCC(C(=O)NCc2ccc(OC)cc2)CC1	inactive: -1.65%	–
